Experimental data: the RNAGym collection of RNA variant scans (doi:10.1101/gad.245936.114)
Variants at the floor of the assay are shown more often than the library holds them.

B1: tRNA (parent)
chain: CUCUCGGUAGCCAAGUUGGUUUAAGGCGCAAGACUUUAAUUUAUCACUACGAAAUCUUGAGAUCGGGCGUUCGACUCGCCCCCGGGAGAUUUUUUCCUCGAGCAA

Variants of: B1
Assay: nonsense suppression (GFP-seq) (ratio to wild type); higher = more function; SUP4oc tRNA, yeast GFP reporter sort-seq
Procedure, shortened: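 Nonsense suppression (GFPSEQ) is the median GFP/RFP ratio of each sorting bin, weighted by the variant's estimated share of cells in that bin and expressed relative to the unmutated parent tRNA. Yeast strains carried genome-integrated variants of an ochre-suppressor tRNA from a library with ~3% random mutations, plus a galactose-driven GFP ochre reporter and RFP, and were grown in raffinose/galactose medium containing 80 mg/L adenine. Cells were sorted into GFP/RFP bins, each bin was Illumina-sequenced (phred ≥30), and variants were kept only with ≥100 reads and ≥30 cells.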

| Variant | nonsense suppression |
| --- | --- |
| A14G G61C | 0.0278 |
| A14G G61A | ≤ 0.026 |
| A14U G86U | ≤ 0.026 |
| A14C U57A U58G | ≤ 0.026 |
| G15C G78C G86C | ≤ 0.026 |
| A14G C77U | ≤ 0.026 |
| G15A C81A C82G | ≤ 0.026 |
| G15A U20G G25C A54U | ≤ 0.026 |
| G15C U17C C83U | ≤ 0.026 |
| G15A G61A | ≤ 0.026 |
| G15A G61C | 0.034 |
| A14G G32A G61C U70A | ≤ 0.026 |
| A14U A24U G26U C29G | ≤ 0.026 |
| A14G U55G U71C | ≤ 0.026 |
| G15A A23U A54G | ≤ 0.026 |
| A14G G86A | ≤ 0.026 |
| G15A U57C G59C G78A | ≤ 0.026 |
| A14G G32A | ≤ 0.026 |
| A14G A60U C77A G88A | ≤ 0.026 |
| G15C G61C U63G | ≤ 0.026 |
| G15A U21A U70C | ≤ 0.026 |
| A14U A31G U55G C56U U58C | ≤ 0.026 |
| A14U U17C U22C A87C | ≤ 0.026 |
| A14U C27A G78C A87C | ≤ 0.026 |

| Variant | nonsense suppression |
| --- | --- |
| A14U U57G U71C | ≤ 0.026 |
| G15A C68U | 0.0272 |
| G15C G66C | ≤ 0.026 |
| G15C U58A A60U | ≤ 0.026 |
| A14U A23G A62U G84A | ≤ 0.026 |
| A14U U20A C34U U57A G85A | ≤ 0.026 |
| A14G U16C U63C G65U | ≤ 0.026 |
| A14U A33C A54U G88U | ≤ 0.026 |
| G15A G26U G59U | ≤ 0.026 |
| A14C U20G G86U | ≤ 0.026 |
| A14G G18A A30G | ≤ 0.026 |
| G15U A74G A89U | ≤ 0.026 |
| A14G U21G U57C | ≤ 0.026 |
| G15U A54C A87G | ≤ 0.026 |
| A14G A62C C75A G84C | ≤ 0.026 |
| G15A G78C | ≤ 0.026 |
| G15A G78A | 0.0278 |
| A14C U22G A23G G67C | ≤ 0.026 |
| A14U G26U G32U | ≤ 0.026 |
| G15A U22G G86C | ≤ 0.026 |
| G15C | ≤ 0.026 |
| G15U | ≤ 0.026 |
| G15A | 0.188 |
| G15C G28U G65A C68A G86U | ≤ 0.026 |

| Variant | nonsense suppression |
| --- | --- |
| G15A U20C | ≤ 0.026 |
| G15A G32U A33G C80A | ≤ 0.026 |
| G15U A33U C75G | ≤ 0.026 |
| A14U G66C | ≤ 0.026 |
| G15C G69U G73C | ≤ 0.026 |
| G15C A62G G66U G78A A87G | ≤ 0.026 |
| G15C A62G G66U G78A A87U | ≤ 0.026 |
| A14U G18U A54C U58C | ≤ 0.026 |
| A14G U17A | ≤ 0.026 |
| A14U G85A | ≤ 0.026 |
| A14U G85U | ≤ 0.026 |
| G15A U17A G69U | ≤ 0.026 |
| G15U A54U G59C | ≤ 0.026 |
| A14U G85U A87C | ≤ 0.026 |
| G15C C64A C77G | ≤ 0.026 |
| A14G A33G G78C | ≤ 0.026 |
| A14U U20G A60C | ≤ 0.026 |
| A14G C77G C80U | ≤ 0.026 |
| G15A U71C | ≤ 0.026 |
| G15A A60U | ≤ 0.026 |
| G15C A23G G61A | ≤ 0.026 |
| G15U A30C C75G C77A | ≤ 0.026 |
| A14U G15A U21G U35G | ≤ 0.026 |
| A14U A31C | ≤ 0.026 |

| Variant | nonsense suppression |
| --- | --- |
| G15U A62U U63A U71A | ≤ 0.026 |
| A14U U22C A62C U70C | ≤ 0.026 |
| A14G U35A U57C A62C | ≤ 0.026 |
| G15A A33U | ≤ 0.026 |
| A14G C29G | ≤ 0.026 |
| A14G A31G | 0.0611 |
| A14G A31U | ≤ 0.026 |
| G15C A62G A87G | ≤ 0.026 |
| G15A G32U G59A G61A G65U | ≤ 0.026 |
| G15C U22A G86A | ≤ 0.026 |
| G15C G19A U21G | ≤ 0.026 |
| A14U U21G | ≤ 0.026 |
| G15C G32C U63C G88C | ≤ 0.026 |
| G15A C79G C83G G84U | ≤ 0.026 |
| G15A U22G G32C | ≤ 0.026 |
| A14G U22C | ≤ 0.026 |
| A14C U20C G67U | ≤ 0.026 |
| G15A U22C | 0.147 |
| G15C G18A A30G | ≤ 0.026 |
| A14U G88C | ≤ 0.026 |
| A14U U17A G18C G73A | ≤ 0.026 |
| A14U A62U C79G A87G | ≤ 0.026 |
| G15A U16G U58G | ≤ 0.026 |
| A14G G32C A74U | ≤ 0.026 |

| Variant | nonsense suppression |
| --- | --- |
| A14U A33U G73A | ≤ 0.026 |
| A14U C34A G88A | ≤ 0.026 |
| G15C C81G | ≤ 0.026 |
| A14G C80G | ≤ 0.026 |
| A14G G18U G25A | ≤ 0.026 |
| A14U U63C A89U | ≤ 0.026 |
| A14C U58G G59U C82G | ≤ 0.026 |
| G15C U21A U35G | ≤ 0.026 |
| A14U A54C U55G | ≤ 0.026 |
| G15C U17C U20C C75G | ≤ 0.026 |
| G15C A54G U76A | ≤ 0.026 |
| A14G U16C A31G C56A U70G U76A | ≤ 0.026 |
| G15A C64A C72A | ≤ 0.026 |
| A14C U21G A23C G69A U70A | ≤ 0.026 |
| G15C C64U G69U G86U | ≤ 0.026 |
| G15A U16C G78C | ≤ 0.026 |
| A14G A30U G65C U70C C72U G85A | ≤ 0.026 |
| A14G C72G A74G | ≤ 0.026 |
| A14U C29G C80A | ≤ 0.026 |
| G15U A23U | ≤ 0.026 |
| G15U A23G | ≤ 0.026 |
| G15C A31G U55A | ≤ 0.026 |
| A14U A62C C83U | ≤ 0.026 |
| A14U G61A | 0.0341 |

| Variant | nonsense suppression |
| --- | --- |
| A14G A33G | ≤ 0.026 |
| G15U A31G | ≤ 0.026 |
| A14U U55A | ≤ 0.026 |
| A14G G32C A62G G67U | ≤ 0.026 |
| A14U U20A G28C U57G | ≤ 0.026 |
| A14C U76A | ≤ 0.026 |
| A14C U76G | ≤ 0.026 |
| G15A U63G C75G | ≤ 0.026 |
| G15U A74C | ≤ 0.026 |
| G15C U22C U63G | ≤ 0.026 |
| A14G G59U | ≤ 0.026 |
| A14G G65A G67C G69C U71G | ≤ 0.026 |
| A14U G15U A30G C83G | ≤ 0.026 |
| G15C C27G A30C G32A C80G G86C | ≤ 0.026 |
| G15C A33U G73U C75U | ≤ 0.026 |
| A14U A62C C75U G84U | ≤ 0.026 |
| G15U A33G U71G | ≤ 0.026 |
| A14G A23U U76C | ≤ 0.026 |
| G15U A31G C64A U71G | ≤ 0.026 |
| G15A U16C G28C | ≤ 0.026 |
| A14G G69A G86A | ≤ 0.026 |
| A14U U55C A60U A89U | ≤ 0.026 |
| G15C A30U | ≤ 0.026 |
| A14G U76A G84A | ≤ 0.026 |

| Variant | nonsense suppression |
| --- | --- |
| A14U G26U G78C | ≤ 0.026 |
| A14G G61C C68A C80G | ≤ 0.026 |
| A14C U35G A62G | ≤ 0.026 |
| A14U G19U | ≤ 0.026 |
| A14U G19C | ≤ 0.026 |
| A14U U22C | ≤ 0.026 |
| G15C G67A | ≤ 0.026 |
| G15A G26U | ≤ 0.026 |
| G15A U76G | ≤ 0.026 |
| G15A U76C | 0.0394 |
| G15C C64U G65U | ≤ 0.026 |
| A14U A74G | ≤ 0.026 |
| A14U G25A C64A A74U | ≤ 0.026 |
| A14U A60C G66A G67A | ≤ 0.026 |
| A14G U20C G88U | ≤ 0.026 |
| A14U A54G | ≤ 0.026 |
| A14G C34U U63C G78C C79A | ≤ 0.026 |
| A14G A60G | 0.0456 |
| A14U A23C | ≤ 0.026 |
| A14U A23G | ≤ 0.026 |
| A14G A24U U58G | ≤ 0.026 |
| A14G G26C C29A | ≤ 0.026 |
| A14U G26C U57C | ≤ 0.026 |
